The text below walks through data of patent US20150010574A1.

The target in this assay is IGF bioactivity in human serum pooled from healthy donors (20%). In words: cell-based or functional assay.

B1: antibody 60833 (antibody, human IgG1, lambda)
heavy: QVELVESGGGLVQPGGSLRLSCAASGFTFTSYWMSWVRQAPGKGLELVSSITSYGSFTYYADSVKGRFTISRDNSKNTLYLQMNSLRAEDTAVYYCARNMYTHFDSWGQGTLVTVSS[human IgG1 constant region left out here]
light: DIVLTQPPSVSGAPGQRVTISCSGSSSNIGSNSVSWYQQLPGTAPKLLIYDNSKRPSGVPDRFSGSKSGTSASLAITGLQSEDEADYYCQSRDTYGYYWVFGGGTKLTVLGQPKAAPSVTLFPPSSEELQANKATLVCLISDFYPGAVTVAWKGDSSPVKAGVETTTPSKQSNNKYAASSYLSLTPEQWKSHRSYSCQVTHEGSTVEKTVAPTECS
B1 displayed a % Remaining Phosphorylation at 15 µg/mL (100 nM) Inhibitor; human serum (20%) induced IGF-1R phosphorylation of 5% and an IC50 of human serum (20%) induced IGF-1R phosphorylation, cell based ELISA of 0.25 mg/L.
